35 molecules from PubChem BioAssay (NCI) can be followed below.

Molecules are shown by their SMILES.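 Cells were grown in 96-well plates and exposed to each compound for 48 hours at five concentrations; endpoints were interpolated linearly between bracketing concentrations, or set to the highest concentration if not reached. The concentration for 50% growth inhibition is given as GI50. TGI is the concentration that stops growth completely.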

In the test the test system is NCI-H322M lung. Nature of the test: NCI-60 cell line screen, 48 h.
As to `CCN(CC)CCCOc1cc(O)c2c(=O)cc(-c3ccccc3)oc2c1`, the GI50 is 8.53 µM and the TGI is 27.4 µM. Consider `C[C@H]1CCCCC[C@@H]2CC(=O)CC2C(=O)CCC(=O)O1` (stereo not given in full), for which the TGI is > 100 µM. The same measure, in the same setting: next, `Cc1ccsc1C(=O)C(CC(=O)c1cccs1)c1ccsc1` (stereo not given): > 100 µM; `CC(C)[Si](OC1=C(C(=O)N(C)c2ccccc2Cl)CCCC1)(C(C)C)C(C)C`: 28.2 µM; `CC[N+]1(C)CCC(O)(c2ccccc2)C(C(=O)c2ccccc2)C1` (stereo not given): 34.1 µM. As for `COc1ccc(C2CC(=O)CC(c3ccc(OC)cc3)C23C(=O)NC(=S)NC3=O)cc1` (stereo not given), the TGI is > 100 µM. Regarding `Cc1ccc2c(c1)SC(c1cc3c(cc1Br)OCO3)S2` (stereo not given), the TGI is > 31.6 µM. As to `ICCC(c1ccccc1)(c1ccccc1)c1ccccc1`, the GI50 was 12.3 µM and the TGI was 25.1 µM.

On to `Nc1nnc(N)n1NC(=O)C(=O)Nc1ccc([N+](=O)[O-])cc1`, for which the TGI was > 100 µM. As to `CCCCCCCCCC1C(C)c2c([nH]c3ccccc23)C2C(=O)N(c3ccccc3)C(=O)C21` (stereo not given), the TGI is 30.7 µM. In the case of `CNNC(=N\S(=O)(=O)c1cc(C(=O)Nc2ccc(Cl)cc2)c(Cl)cc1SCc1ccccc1)/N=C/c1ccc([N+](=O)[O-])s1`, the GI50 is > 100 µM and the TGI was > 100 µM.

Turning to `COC(=O)n1c(=O)n(-c2ccccc2)c(=O)n1C(=O)Nc1ccccc1`, the TGI is > 100 µM. In the case of `C[n+]1ccc(-c2cc[n+](C)cc2)cc1`, the TGI was > 100 µM. Consider `c1ccc2sc(SCN(C3CCCCC3)C3CCCCC3)nc2c1`, for which the TGI is > 100 µM. For the molecule `CC(CO)(CO)Nc1ncnc2ccccc12`, the TGI was > 100 µM. On to `N#CSCc1c(Cl)cccc1Cl`, for which the GI50 is 37.5 µM and the TGI is > 100 µM. Regarding `COc1cc2c(cc1OC)C1CCc3ccccc3CN1CC2` (stereo not given), the TGI was > 100 µM. Regarding `COc1cc(Cn2ccc3c2-c2oncc2CC3)cc(OC)c1`, the GI50 is 7.75 µM and the TGI was > 100 µM.

On to `Cc1cc2c(cc1C)C(=O)C1(C2)Cc2c(ccc(C)c2C)C1=O` (stereo not given), for which the TGI was > 100 µM. Turning to `Nc1nc(N)c(N=O)c(Nc2ccc(I)cc2)n1`, the TGI is > 100 µM. Consider `CCc1ccc(Nc2cc(=O)[nH]c(=S)n2C)cc1`, for which the TGI is > 100 µM.

Regarding `Cc1ccc(NC(=O)CC/C(CC(=O)c2ccc(F)cc2)=N\NC(=O)C(=O)NN)cc1C`, the TGI is > 100 µM. With `COc1cc(S(=O)(=O)Nc2nc(-c3ccc(N)cc3)cs2)ccc1Cl`, the TGI was > 100 µM. Regarding `O=C(NNc1ccccc1)OCc1ccccc1`, the GI50 is 19.3 µM and the TGI is > 100 µM. In the case of `CCOC(=O)[C@H]1Nc2ccc(Cl)cc2[C@H]2OCC[C@@H]12`, the TGI was > 100 µM. Still for that read-out and setting: next, `Cc1ccccc1NC(=O)C1C(=O)N(c2ccccc2C)C(=O)/C1=N\N` (stereo not given): > 100 µM. Turning to `CO/N=C(/COc1c(-c2ccccc2)oc2ccccc2c1=O)c1ccc(OC)cc1`, the GI50 was > 100 µM and the TGI is > 100 µM. Turning to `N#Cc1c(C#N)c(-c2ccco2)n(-c2ccccc2)c1N`, the TGI is > 100 µM. Molecule `Cc1ccc(C(CC(=O)C(C)(C)CN2CCCCC2)SCCS(=O)(=O)O)cc1` (stereo not given) displayed a TGI of 84.8 µM. `C=CC(=O)N1CCC([C@@H]2CCNc3c(C(N)=O)c(-c4ccc(Oc5ccccc5)cc4)nn32)CC1`: the GI50 was 1.65 µM and the TGI was determined as 28.1 µM.

`CN(C)CCNC(=O)Cn1ccc(=O)c2ccc([N+](=O)[O-])cc21`: the TGI was > 100 µM. With `COc1c(NC(=O)CC(C)=O)[c]([Hg][O]C(C)=O)c(OC)c(Cl)[c]1[Hg][O]C(C)=O`, the GI50 is 33.3 µM and the TGI was > 100 µM. Turning to `O=C(Nc1nc2ccccc2n1Cc1ccc(Cl)cc1)NC12CC3CC(CC(C3)C1)C2`, the TGI is > 100 µM. For `CCN1C(=O)c2ccccc2C1(O)c1ccc(Cl)cc1` (stereo not given), the TGI is > 100 µM. As to `CCOC(=O)c1ccc(Nc2sc(C(=O)c3cccc([N+](=O)[O-])c3)c(N)c2C#N)cc1`, the GI50 was 0.311 µM and the TGI was determined as 42.6 µM.
